Results taken from the supplement of paper PMC7826260.
Some of the results follow. One pool of 16,384 single-stranded DNAs met each Rep nickase domain in vitro (3 µM enzyme, 1 h, 37 °C); shown is the middle of each 90-letter strand. Uncut reads are compared with the no-enzyme pool on a log2 scale; strong cutting gives strongly negative numbers. There is no active / inactive call. Counts are relative to all reads; uncut strands gain when others are lost, and binding without cutting may add a little.

What was measured:
Assay in all cases: uncleaved DNA left, log2 of reads against the no-enzyme library (log2 ratio); higher = less cleavage (more negative = more Rep cleavage of the k-mer); sequences stand for … in CTCGTCCG…ACCGGAGA
[1] = test system: T1, Rep nickase domain of Muscovy duck circovirus
T1 sequence (residues 1-111 of Rep, tag left off): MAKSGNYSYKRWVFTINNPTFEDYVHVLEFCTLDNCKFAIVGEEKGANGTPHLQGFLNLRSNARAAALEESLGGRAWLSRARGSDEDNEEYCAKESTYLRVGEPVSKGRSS
Procedure: (§1)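 A pool of 90-nt single-stranded DNAs with seven random bases just before the constant AC of the nick site (name = the seven bases) was cut by 3 µM recombinant His6-SUMO-tagged Rep nickase domain (300 nM DNA, 50 mM HEPES pH 8.0, 50 mM NaCl, 1 mM MnCl2, 1 h, 37 °C, three replicates). Uncut DNA was amplified and sequenced.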

[2] = test system: T2, Rep nickase domain of banana bunchy top virus
T2 sequence (residues 1-94 of Rep, tag left off): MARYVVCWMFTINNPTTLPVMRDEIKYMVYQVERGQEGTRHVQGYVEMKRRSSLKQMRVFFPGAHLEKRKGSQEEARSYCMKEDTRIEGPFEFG
Procedure: as §1

[3] = test system: T3, Rep nickase domain of cabbage leaf curl virus
T3 sequence (residues 1-116 of Rep, tag left off): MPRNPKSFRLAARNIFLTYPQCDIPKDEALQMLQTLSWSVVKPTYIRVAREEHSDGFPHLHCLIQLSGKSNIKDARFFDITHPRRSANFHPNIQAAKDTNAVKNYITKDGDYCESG
Procedure: as §1

[4] = test system: T4, Rep nickase domain of chickpea chlorotic dwarf virus
T4 sequence (residues 1-124 of Rep, tag left off): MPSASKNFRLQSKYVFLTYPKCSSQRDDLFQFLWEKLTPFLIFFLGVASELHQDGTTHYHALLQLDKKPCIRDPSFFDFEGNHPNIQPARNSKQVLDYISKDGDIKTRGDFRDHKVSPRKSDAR
Procedure: as §1

[5] = test system: T5, Rep nickase domain of faba bean necrotic yellows virus
T5 sequence (residues 1-98 of Rep, tag left off): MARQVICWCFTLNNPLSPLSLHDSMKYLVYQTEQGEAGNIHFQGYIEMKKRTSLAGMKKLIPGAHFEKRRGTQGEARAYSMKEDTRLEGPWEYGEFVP
Procedure: as §1

[6] = test system: T6, Rep nickase domain of maize striate mosaic virus
T6 sequence (residues 1-117 of Rep, tag left off): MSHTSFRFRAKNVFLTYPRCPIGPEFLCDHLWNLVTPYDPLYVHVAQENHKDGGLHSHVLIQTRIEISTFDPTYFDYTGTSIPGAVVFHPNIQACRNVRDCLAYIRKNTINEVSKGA
Procedure: as §1

[7] = test system: T7, Rep nickase domain of porcine circovirus 2
T7 sequence (residues 2-116 of Rep, tag left off): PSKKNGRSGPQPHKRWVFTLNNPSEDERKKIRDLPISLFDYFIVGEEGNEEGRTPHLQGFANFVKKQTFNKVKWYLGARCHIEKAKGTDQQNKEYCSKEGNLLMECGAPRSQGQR
Procedure: as §1

[8] = test system: T8, Rep nickase domain of tomato golden mosaic virus
T8 sequence (residues 1-124 of Rep, tag left off): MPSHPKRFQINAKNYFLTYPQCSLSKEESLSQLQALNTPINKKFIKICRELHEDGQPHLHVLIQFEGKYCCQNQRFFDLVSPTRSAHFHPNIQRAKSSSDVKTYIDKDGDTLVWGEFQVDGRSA
Procedure: as §1

[9] = test system: T9, Rep nickase domain of tomato yellow leaf curl virus
T9 sequence (residues 1-136 of Rep, tag left off): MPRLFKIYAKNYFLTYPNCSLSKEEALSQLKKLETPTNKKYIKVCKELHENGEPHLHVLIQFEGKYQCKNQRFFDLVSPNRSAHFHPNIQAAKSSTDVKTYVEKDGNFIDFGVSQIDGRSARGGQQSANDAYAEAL
Procedure: as §1

[10] = test system: T10, Rep nickase domain of wheat dwarf virus
T10 sequence (residues 1-137 of Rep, tag left off): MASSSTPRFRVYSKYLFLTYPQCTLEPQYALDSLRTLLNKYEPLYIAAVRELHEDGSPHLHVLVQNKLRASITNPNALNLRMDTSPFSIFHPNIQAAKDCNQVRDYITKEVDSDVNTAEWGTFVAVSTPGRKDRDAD
Procedure: as §1

Row | Sequence | uncleaved DNA left (log2) [1] | uncleaved DNA left (log2) [2] | uncleaved DNA left (log2) [3] | uncleaved DNA left (log2) [4] | uncleaved DNA left (log2) [5] | uncleaved DNA left (log2) [6] | uncleaved DNA left (log2) [7] | uncleaved DNA left (log2) [8] | uncleaved DNA left (log2) [9] | uncleaved DNA left (log2) [10]
1 | TATCATT | -1.15 | -0.277 | -0.805 | -1.88 | -0.106 | -0.219 | -2.81 | -0.136 | 0.0761 | 0.0764
2 | GTCCATG | 0.0682 | 0.158 | 0.221 | 0.776 | 0.137 | 1.5 | 0.145 | 0.132 | 0.107 | 0.0753
3 | TGGAGCA | 0.0152 | -0.0391 | 0.314 | 0.56 | -0.0857 | 0.354 | -1.19 | -0.145 | -0.0853 | 0.0216
4 | CGTGCCC | -0.168 | -0.0573 | -0.0843 | 0.00958 | -0.173 | -0.206 | -0.107 | -0.115 | -0.0425 | -0.166
5 | GCGTGTC | 0.0581 | -0.0808 | 0.163 | 0.385 | -0.0241 | 0.18 | -0.0348 | -0.0389 | -0.00398 | -0.081
6 | TGCCAAA | -0.0237 | -0.00758 | 0.153 | 0.111 | -0.111 | -0.386 | -0.027 | -0.0393 | 0.0446 | 0.0255
7 | CAAGCCC | 0.0398 | -0.0755 | -0.147 | -0.298 | -0.0612 | -0.245 | 0.0275 | 0.0382 | -0.105 | -0.0231
8 | TGAAAAA | 0.0198 | 0.199 | 0.222 | 0.142 | -0.0105 | -0.238 | 0.191 | 0.0857 | 0.0815 | 0.162
9 | CGGGCAG | -0.0522 | -0.0328 | 0.55 | 1.49 | -0.202 | 1.68 | 0.0421 | -0.116 | -0.122 | -0.0837
10 | ACCGCGG | 0.0961 | -0.039 | -0.29 | -0.223 | 0.0197 | -0.463 | 0.154 | 0.0888 | 0.0548 | 0.0538
11 | CTAAATT | 0.0256 | -0.174 | 0.0575 | -2.29 | -0.0551 | -0.531 | -0.447 | 0.0332 | -0.0262 | -0.0483
12 | TCACTGG | -0.00135 | -0.0744 | 0.0277 | 0.552 | -0.145 | 0.249 | 0.0405 | -0.0447 | -0.0747 | -0.0467
13 | CCCGGTC | 0.0107 | 0.0262 | 0.618 | 1.55 | 0.146 | 1.46 | 0.182 | 0.197 | 0.0315 | 0.0307
14 | GGTCCGC | -0.03 | -0.102 | 0.298 | 0.806 | -0.102 | 0.971 | 0.0477 | 0.0811 | 0.0314 | 0.0746
15 | GCGTTGC | -0.00918 | -0.155 | -0.72 | -0.399 | 0.0148 | -0.79 | 0.0921 | -0.142 | 0.00846 | -0.103
16 | GTTAGGC | 0.0603 | 0.0348 | 0.388 | 0.883 | 0.0114 | 1.01 | 0.0698 | 0.0697 | 0.0445 | 0.109
17 | AAACTCG | -0.0259 | -0.014 | -0.818 | -0.768 | 0.0677 | -1.16 | 0.108 | 0.0153 | -0.0402 | -0.121
18 | CCTTCTG | 0.0471 | -0.046 | -0.286 | -0.327 | 0.176 | -0.64 | 0.0242 | -0.0546 | 0.0109 | -0.104
19 | GAGATTT | 0.086 | -1.1 | 0.476 | -0.469 | -0.457 | 1.63 | -3.03 | 0.146 | 0.128 | 0.166
20 | TTGCCAT | -0.0279 | 0.00121 | -0.268 | -0.658 | 0.016 | -0.68 | -1.17 | 0.0313 | 0.238 | 0.218
21 | TACGAGA | 0.0181 | 0.0585 | 0.737 | 1.13 | 0.099 | 1.15 | 0.0724 | 0.0723 | 0.00592 | 0.0502
22 | CCATCAA | -0.00811 | 0.187 | 0.204 | 0.431 | 0.083 | -0.454 | 0.0927 | 0.02 | 0.0122 | 0.191
23 | GCGAGGC | -0.0609 | -0.0953 | 0.00598 | 0.479 | -0.106 | 0.306 | 0.0105 | -0.0503 | 0.0248 | -0.0474
24 | TCAAATC | 0.0851 | -0.0196 | 0.0973 | -0.135 | 0.0276 | -0.52 | 0.0715 | -0.014 | -0.0194 | 0.0275
25 | CGCTACC | -0.0884 | -0.0625 | -0.123 | -1.57 | -0.154 | -0.291 | -0.524 | -0.277 | -0.136 | -0.154
26 | CCACGTT | 0.0557 | -0.166 | -0.88 | -2.36 | 0.115 | -0.826 | -0.531 | -0.0556 | -0.0853 | -0.801
27 | CACCGAT | 0.0752 | -0.0882 | 0.0697 | -0.316 | -0.0238 | 0.0773 | -0.212 | 0.112 | 0.00308 | 0.0164
28 | GGAGTCA | 0.00826 | 0.145 | 0.828 | 1.73 | -0.00478 | 2.08 | 0.161 | -0.000835 | 0.135 | 0.181
29 | TGTGACT | 0.0325 | 0.0503 | 0.183 | 0.728 | 0.0147 | 1.71 | 0.046 | 0.146 | 0.0141 | 0.188
30 | CTTAGCT | -0.00641 | -0.0711 | -0.385 | -1.43 | -0.035 | -1.1 | -0.147 | -0.0514 | -0.0544 | -0.0139
